Source: PubChem BioAssay AID504333 (National Center for Advancing Translational Sciences (NCATS), 2011)
Out of some 360,000 compounds screened, about 16,000 (4.4%) were called active. This list was built around the results that the source calls inconclusive (neither active nor inactive); the mix of calls is not that of the screen. The call rests on the fitted dose curve; in most records, active means well fitted inhibition curve with a large enough effect; inconclusive means small, poorly fitted or top-dose-only effect; inactive means no such curve, though single readings can be large or run the other way. Potencies beside an inconclusive call are fits to weak or partial responses and may not hold up.

Target: Bromodomain adjacent to zinc finger domain protein 2B (Homo sapiens) (UniProt Q9UIF8)
Assay: qHTS Assay for Inhibitors of BAZ2B; further: nearly all actives have a fitted effect of over 60% in size
Conditions: AlphaScreen BAZ2B-H3K14Ac peptide displacement; series mostly up to 114 µM
Procedure, shortened: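 Protein-peptide AlphaScreen: BAZ2B 50 nM, b-H3K14Ac 50 nM, 1x PBS pH 7.4 + 0.01% Tween-20. Preincubation 30 min RT; cpd 30 min RT (top 110 uM); beads 20 min RT, light-protected.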
Potency means the concentration at half of the fitted maximal effect; tags describe the fitted curve by direction and shape.

Sequence of UniProt Q9UIF8 (Q9UIF8 whole entry, looked up, the tested form may be a part): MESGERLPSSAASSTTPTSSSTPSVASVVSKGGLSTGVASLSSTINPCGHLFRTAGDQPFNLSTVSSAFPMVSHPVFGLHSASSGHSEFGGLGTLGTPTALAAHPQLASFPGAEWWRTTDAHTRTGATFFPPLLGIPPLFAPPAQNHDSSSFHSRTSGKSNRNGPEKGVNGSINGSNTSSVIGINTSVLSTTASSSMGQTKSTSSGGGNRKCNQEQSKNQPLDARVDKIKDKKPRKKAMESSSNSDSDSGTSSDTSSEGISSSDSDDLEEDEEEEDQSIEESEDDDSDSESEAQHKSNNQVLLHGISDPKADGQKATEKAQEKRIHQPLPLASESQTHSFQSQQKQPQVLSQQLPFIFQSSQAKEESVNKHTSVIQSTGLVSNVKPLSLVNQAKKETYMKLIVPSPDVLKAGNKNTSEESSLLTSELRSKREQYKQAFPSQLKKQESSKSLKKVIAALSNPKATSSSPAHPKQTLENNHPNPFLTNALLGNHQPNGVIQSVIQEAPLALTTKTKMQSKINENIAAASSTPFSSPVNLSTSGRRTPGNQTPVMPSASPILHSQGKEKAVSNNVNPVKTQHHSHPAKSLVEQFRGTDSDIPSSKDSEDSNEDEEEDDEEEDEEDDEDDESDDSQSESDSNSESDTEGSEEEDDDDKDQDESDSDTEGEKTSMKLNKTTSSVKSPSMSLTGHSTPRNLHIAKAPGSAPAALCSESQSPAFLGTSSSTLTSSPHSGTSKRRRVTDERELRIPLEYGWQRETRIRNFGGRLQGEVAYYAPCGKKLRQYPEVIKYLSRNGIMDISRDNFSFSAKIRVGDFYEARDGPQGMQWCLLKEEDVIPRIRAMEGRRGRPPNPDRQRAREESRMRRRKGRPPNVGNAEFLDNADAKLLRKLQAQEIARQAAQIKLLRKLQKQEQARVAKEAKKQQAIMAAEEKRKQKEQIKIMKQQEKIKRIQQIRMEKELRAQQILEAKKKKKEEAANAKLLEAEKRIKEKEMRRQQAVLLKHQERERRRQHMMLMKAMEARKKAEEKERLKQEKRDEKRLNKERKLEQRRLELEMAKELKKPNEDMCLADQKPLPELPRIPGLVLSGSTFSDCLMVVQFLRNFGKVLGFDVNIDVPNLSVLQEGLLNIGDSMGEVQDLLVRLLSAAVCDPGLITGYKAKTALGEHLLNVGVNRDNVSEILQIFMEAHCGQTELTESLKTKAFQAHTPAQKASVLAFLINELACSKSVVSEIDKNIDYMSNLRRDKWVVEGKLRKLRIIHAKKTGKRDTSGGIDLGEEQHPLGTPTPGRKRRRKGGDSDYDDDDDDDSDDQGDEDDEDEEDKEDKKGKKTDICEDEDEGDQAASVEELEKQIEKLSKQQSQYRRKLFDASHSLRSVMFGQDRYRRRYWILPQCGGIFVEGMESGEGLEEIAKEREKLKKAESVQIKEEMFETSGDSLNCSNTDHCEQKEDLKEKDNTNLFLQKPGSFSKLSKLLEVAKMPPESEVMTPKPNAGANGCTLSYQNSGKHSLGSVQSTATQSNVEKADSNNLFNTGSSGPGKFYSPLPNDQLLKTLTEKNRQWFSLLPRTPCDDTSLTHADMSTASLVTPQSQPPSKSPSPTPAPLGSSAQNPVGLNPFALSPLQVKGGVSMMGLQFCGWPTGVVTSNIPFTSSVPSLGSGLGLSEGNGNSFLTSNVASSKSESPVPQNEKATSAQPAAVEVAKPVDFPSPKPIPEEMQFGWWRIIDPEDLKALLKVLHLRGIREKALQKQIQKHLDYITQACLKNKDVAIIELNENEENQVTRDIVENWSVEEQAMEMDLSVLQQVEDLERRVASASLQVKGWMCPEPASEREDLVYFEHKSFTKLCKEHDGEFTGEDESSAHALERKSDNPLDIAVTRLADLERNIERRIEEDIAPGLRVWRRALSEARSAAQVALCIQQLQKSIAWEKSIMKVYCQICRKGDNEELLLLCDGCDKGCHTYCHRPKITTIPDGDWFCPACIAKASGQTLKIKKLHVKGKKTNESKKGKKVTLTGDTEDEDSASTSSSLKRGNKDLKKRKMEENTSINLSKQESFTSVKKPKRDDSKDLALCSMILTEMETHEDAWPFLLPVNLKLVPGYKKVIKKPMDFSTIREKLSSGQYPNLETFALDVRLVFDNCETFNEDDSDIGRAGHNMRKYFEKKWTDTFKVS

Row | SMILES | Potency
1 | Cc1ccc(C(=O)NCC(=O)NCC(=O)OCc2ccc(Cl)cc2)cc1 | inactive
2 | CCOc1ccc(/C=C/C(=O)Nc2sc3c(c2C(=O)OC)CCCC3)cc1 | inactive
3 | O=[N+]([O-])c1ccc(N(CCO)Cc2ccccc2)c([N+](=O)[O-])c1 | inconclusive: 79.4 µM [inhibitor, single point]
4 | CCOc1cc(/C=N/NC(=O)c2cc(C)n(-c3ccc(F)cc3)c2C)ccc1O | inconclusive: 35.5 µM [inhibitor, partial curve]
5 | COc1ccc(N2CCN(C3CCCN(Cc4ccc(F)c(F)c4)C3)CC2)cc1 (stereo not given) | inconclusive: 44.7 µM [inhibitor, partial curve]
6 | O=C(CSc1ncn[nH]1)Nc1ccccc1Sc1ccc(Cl)cc1 | inconclusive: 89.1 µM [inhibitor, single point]
7 | COc1ccc(C2CC(=O)c3cc(-c4nc(-c5ccc(C)cc5)cs4)c(=O)[nH]c3C2)cc1 (stereo not given) | inconclusive: 89.1 µM [inhibitor, single point]
8 | C/C(=N\NC(=S)Nc1ccc(C)c(C)c1)c1ccc(N2CCOCC2)cc1 | inconclusive: 39.8 µM [inhibitor, full curve]
9 | CCOc1ccc2[nH]c(=O)c(CN(CC3COCCO3)C(=O)C3CC3)cc2c1 (stereo not given) | inconclusive: 89.1 µM [inhibitor, single point]
10 | CCOC(=O)c1ccc(NC(=O)CSc2nc(-c3ccc(F)cc3)cc(C(F)(F)F)c2C#N)cc1 | inactive
11 | C=CCn1cc(C(=O)NCc2ccc3c(c2)OCO3)c(=O)c2cc(S(=O)(=O)N(CC)CC)ccc21 | inconclusive: 89.1 µM [inhibitor, partial curve]
12 | CCOC(=O)NC(=O)/C(N=Nc1ccc(C(F)(F)F)cc1)=C(\C)O | inconclusive: 3.98 µM [inhibitor, full curve]
13 | Cc1ccccc1N1C(S)=C(C#N)C(=O)NC1c1ccco1 (stereo not given) | inconclusive: 17.8 µM [inhibitor, full curve]
14 | O=C(CSCc1nc2ccccc2[nH]1)N1CCN(c2cccc(Cl)c2)CC1 | inconclusive: 70.8 µM [inhibitor, single point]
15 | CCN(CCN(C)C)C(=O)c1ccc2c(c1NCCO)C(=O)c1ccccc1C2=O | active: 50.1 µM
16 | CCOc1ccccc1NC(=O)CSc1ccc(-c2ccco2)nn1 | inconclusive: 70.8 µM [inhibitor, partial curve]
17 | COc1ccc(-c2csc(Cc3nnc4n3CCCCC4)n2)cc1 | inconclusive: 100 µM [inhibitor, single point]
18 | COc1ccc2[nH]c3c4c(ccc3c2c1)C(=O)C=CC4=O | active: 39.8 µM
19 | CN(CC(=O)NCCc1ccc(F)cc1)Cc1cccc(Cl)c1 | inactive
20 | COc1cccc(NC(=S)N(CCc2c(C)[nH]c3ccccc23)Cc2cccs2)c1 | inconclusive: 31.6 µM [inhibitor, partial curve]
21 | COCCCn1c(SCc2cccc(OC)c2)nc2cc(OC)c(OC)cc2c1=N | inconclusive: 89.1 µM [inhibitor, single point]
22 | Cc1c(C#N)c(O)n(CCO)c(=O)c1N=Nc1ccc(S(N)(=O)=O)cc1 | active: 79.4 µM
23 | Oc1[nH]c2ccc(Br)cc2c1N=Nc1nn[nH]n1 | inconclusive: 79.4 µM [inhibitor, single point]

Row | SMILES | Potency
24 | Cc1ccc(S(=O)(=O)Nc2cc(-c3nn(C)c(=O)c4ccccc34)ccc2N2CCOCC2)cc1 | inconclusive: 89.1 µM [inhibitor, single point]
25 | COC(Cn1c2c(c3cc(C)ccc31)CCCC2NCc1ccccc1)OC (stereo not given) | active: 39.8 µM
26 | CCOC(=O)CSc1nc2c(sc(=S)n2-c2ccccc2OC)c(=O)n1Cc1ccco1 | inactive
27 | Clc1ccccc1COc1ccc(/C=N/n2cnnc2)cc1 | inconclusive: 89.1 µM [inhibitor, single point]
28 | COCCCNC(=O)CN1C(=O)c2cccc3cccc1c23 | inconclusive: 89.1 µM [inhibitor, single point]
29 | COc1ccc2[nH]cc(CCNC(=O)C3CC(=O)N(c4ccc(Cl)cc4)C3)c2c1 (stereo not given) | inconclusive: 70.8 µM [inhibitor, single point]
30 | Cc1[nH]c2c(C)cccc2c1CN1CCC(CO)(Cc2ccccc2)CC1 | inconclusive: 70.8 µM [inhibitor, partial curve]
31 | COc1ccc(CCCC(=O)NC2CCCCC2C)c(C)c1 (stereo not given) | inconclusive: 35.5 µM [inhibitor, single point]
32 | CC(C)CCNC(=O)c1cc(-c2ccc(Br)s2)nc2ccccc12 | inactive
33 | CNC(=S)N/N=C/c1cn(Cc2ccc(F)cc2)c2ccccc12 | inconclusive: 39.8 µM [inhibitor, full curve]
34 | COc1ccc(-n2c(CN3CCN(c4ccccc4)CC3)nc3ccc([N+](=O)[O-])cc3c2=O)c(OC)c1 | inactive
35 | Cc1ccc(/C(O)=C2/C(=O)C(=O)N(CCN3CCOCC3)C2c2cccnc2)cc1 (stereo not given) | inactive
36 | CCCOc1cccc(-c2cc(C(=O)NN)c3ccccc3n2)c1 | inactive
37 | CN1C2CCC1CC(NC(=O)c1ccc([N+](=O)[O-])cc1)C2 (stereo not given) | inactive
38 | COc1ccccc1NS(=O)(=O)c1cc(NC(=S)Nc2cc(C)cc(C)c2)ccc1Cl | inconclusive: 89.1 µM [inhibitor, single point]
39 | COC(=O)Cc1c(O)ccn(Cc2ccc(Cl)c(Cl)c2)c1=O | inactive
40 | Cc1c(C(=O)NCc2cccc(F)c2)oc2c1-c1[nH]ncc1CC2 | inactive
41 | COc1ccccc1/C=C/C=N/NC(=O)c1ccccn1 | inconclusive: 89.1 µM [inhibitor, single point]
42 | C[C@H]1c2cccc(O)c2C(O)=C2C(=O)[C@]3(O)C(O)=C(C(N)=O)C(=O)[C@@H](N(C)C)C3[C@@H](O)C21 (stereo not given in full) | active: 10 µM
43 | S=c1[nH]nc(-c2cc(-c3ccccc3)n[nH]2)n1/N=C/c1ccc(Br)s1 | active: 56.2 µM
44 | O=[n+]1c2c(n([O-])c3cc(F)c(N4CCCC4)cc31)CCCC2 | inconclusive: 89.1 µM [inhibitor, single point]
45 | COc1ccccc1OCC(=O)N/N=C1\CCCCc2ccccc21 | inactive
